# The supplement of paper PMC12217912
# Some of the results follow. Sequences were assembled here from the parent chain. Inactive controls read about 0.05.
# B1: TEV protease; numbered along this chain (parent)
# chain: MGESLFKGPRDYNPISSSICHLTNESDGHTTSLYGIGFGPFIITNKHLFRRNNGTLVVQSLHGVFKVKDTTTLQQHLVDGRDMIIIRMPKDFPPFPQKLKFREPQREERICLVTTNFQTKSMSSMVSDTSCTFPSGDGIFWKHWIQTKDGQCGSPLVSTRDGFIVGIHSASNFTNTNNYFTSVPKNFMELLTNQEAQQWVSGWRLNADSVLWGGHKVFMVKPEEPFQPVKEATQL
# Variants of: B1
# Assay: raw area under fraction-flipped curve 0-4 h after induction (AUC4h, not background-subtracted), DNA-recorder readout of cleavage of the substrate (dimensionless); higher = more cleavage of the substrate by the protease variant
# Conditions: temperature: 34 °C; time window: 0-4 h after rhamnose induction
# Procedure: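 In vivo DNA recorder in E. coli TOP10(DE3) ΔrhaA at 34 °C. Each TEVp single-site mutant (parent TEVp 0) is paired with a single-site variant of the 7-mer TEVs (canonical ENLYFQ|S). The substrate sits between flexible linkers in a Bxb1-sfGFP-TEVs-SsrA fusion, so cleavage stabilises Bxb1 and speeds flipping of a recombination array, read by NGS. The value is the raw area under the fraction-flipped curve over 0-4 h after rhamnose induction (AUC4h), with ≥20 reads per time point. It is not background-subtracted; inactive controls average about 0.047.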
# 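Also: Bxb1 expression induced with 0.2% (w/v) L-rhamnose at OD600 near 0.5, cultures sampled hourly, flipped fraction per protease–substrate barcode pair counted by paired-end Illumina sequencing.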
Variant,area with substrate EALYFQS,area with substrate EDLYFQS,area with substrate EELYFQS,area with substrate EGLYFQS,area with substrate EILYFQS,area with substrate EKLYFQS,area with substrate ELLYFQS,area with substrate EMLYFQS,area with substrate EPLYFQS,area with substrate EQLYFQS,area with substrate ERLYFQS,area with substrate ESLYFQS,area with substrate ETLYFQS,area with substrate EWLYFQS,area with substrate EYLYFQS,area with substrate EHLYFQS,area with substrate EFLYFQS,area with substrate EVLYFQS,area with substrate ECLYFQS
E189C,0.0941,0.0812,0.0861,0.0768,0.0802,0.0664,0.0789,0.0893,0.0779,0.0743,0.105,0.0818,0.0848,0.0715,0.0655,–,–,–,–
E189G,0.0983,–,0.137,0.0866,0.102,0.104,0.0879,–,–,0.119,–,0.11,0.114,0.0915,–,0.0827,–,–,–
E189N,0.0768,–,0.0676,0.0888,0.104,0.106,0.0823,0.108,0.106,0.0949,0.0509,0.0997,0.129,0.136,–,0.137,0.0924,0.0887,–
E189T,0.128,–,–,0.0563,0.108,0.11,–,–,0.104,–,0.0991,0.116,–,–,0.0792,–,0.0955,0.0852,0.128
G202R,0.0698,–,0.0923,–,–,0.0703,–,0.0558,0.0558,–,0.0722,–,–,–,0.0671,–,–,0.0645,0.0721
M219T,0.0928,–,0.116,–,0.0709,0.0704,0.107,0.152,–,–,0.108,–,–,0.0883,–,–,0.0749,0.113,0.125
M219W,0.0892,–,0.11,0.105,0.1,0.114,0.0921,–,0.0418,0.125,0.0899,0.107,–,0.0741,0.093,0.0878,–,0.0871,0.102
P184F,0.0741,–,–,–,0.0695,0.0683,–,0.0738,0.0796,0.0759,0.0781,0.0716,–,0.0645,–,0.078,–,0.0576,–
L211M,0.0596,–,0.0895,–,0.0904,0.121,0.0954,0.0955,0.139,0.0766,–,0.12,–,0.0806,0.123,0.126,–,0.107,0.0819
V183W,0.0935,–,0.117,0.08,0.0678,0.0848,0.0758,0.0826,0.082,–,0.0678,0.0671,0.089,0.0702,0.0882,0.0451,–,0.0657,0.0697
V183D,0.045,–,–,0.0318,0.0452,0.0472,0.0705,0.044,0.0435,0.0497,0.0464,0.0542,–,0.0535,0.0532,0.0634,0.0971,0.0426,0.0542
V183P,0.109,–,0.0638,–,0.0834,0.119,0.0678,0.105,0.111,0.109,0.104,0.0853,0.132,–,0.0713,0.0895,0.131,0.104,0.0771
V183A,0.0819,–,–,0.112,0.0836,0.0883,0.0873,0.127,0.0856,0.1,0.0756,0.0865,–,0.0806,0.0863,–,–,–,–
